Data as given in the supplement of paper PMC9446081.
The campaign covered roughly 39,000 compounds. About 220 (0.56%) showed activity. The list shows a part of the results.

System: Escherichia coli K-12 BW25113
Assay: relative growth (OD600 normalised to plate interquartile mean) (fraction); higher = less growth inhibition, active = 0.2 or less
Conditions: 50 µM; LB; incubation time: overnight (16-24 h)
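Note: static incubation at 37 °C against the wild-type strain, values averaged over two biological replicates.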

Question: `O=S1(=O)N[C@H]2CCCN2c2ccccc21` was tested. Which relative growth did it give?
Answer: inactive: 0.846

Question: With `CN(C)CCCNC(=O)C[C@@H]1C=C[C@@H](NS(=O)(=O)c2ccccc2)[C@@H](CO)O1` as the compound, how does the relative growth read?
Answer: inactive: 1.02

Question: With `C[C@H]1CN([C@@H](C)CO)C(=O)CCCn2nncc2CO[C@H]1CN(C)C(=O)Nc1ccnc(N2CCOCC2)c1` as the compound, how does the relative growth read?
Answer: inactive: 1.03

Question: Which relative growth does the source give for `C[C@@H]1CN([C@H](C)CO)C(=O)c2cccc(NC(=O)C3CCOCC3)c2O[C@@H]1CN(C)S(=O)(=O)c1cn(C)cn1` here?
Answer: inactive: 0.98

Question: `COc1cccc(S(=O)(=O)Nc2ccc3c(c2)[C@@H]2C[C@@H](CC(=O)NC4CCCCC4)O[C@H](CO)[C@@H]2O3)c1` was tested. Which relative growth did it give?
Answer: inactive: 0.962

Question: How did the relative growth turn out when `CC(C)NC(=O)Nc1ccc2c(c1)C(=O)N(C)[C@H]1CC[C@H](CC(=O)NCc3ccc(F)cc3)O[C@H]1CO2` was run?
Answer: inactive: 0.984

Question: `N=C(N)/N=C(\N)N1CCOCC1` was tested. Which relative growth did it give?
Answer: inactive: 0.999

Question: Which relative growth does the source give for `COc1ccc(NC(=O)N(C)C[C@@H]2Oc3ccc(NC(=O)Nc4ccc(C(F)(F)F)cc4)cc3CC(=O)N([C@H](C)CO)C[C@H]2C)cc1` here?
Answer: inactive: 1.01

Question: How did the relative growth turn out when `O=C(C[C@H]1C=C[C@@H](NC(=O)Cc2ccccn2)[C@@H](CO)O1)NCCCN1CCOCC1` was run?
Answer: inactive: 0.987

Question: For `C/C=C/c1ccc2c(c1)O[C@@H](CN(C)C(=O)c1ccc3c(c1)OCO3)[C@@H](C)CN([C@H](C)CO)S2(=O)=O`, which relative growth is on record?
Answer: inactive: 1.01

Question: Which relative growth does the source give for `C[C@H]1CN([C@@H](C)CO)C(=O)c2cccc(NC(=O)c3ccncc3)c2O[C@@H]1CN(C)Cc1ccc2c(c1)OCO2` here?
Answer: inactive: 0.991

Question: `C[C@H]1CN([C@@H](C)CO)C(=O)Cc2cc(NC(=O)CCCN(C)C)ccc2O[C@@H]1CN(C)Cc1ccc(Oc2ccccc2)cc1` was tested. Which relative growth did it give?
Answer: inactive: 1.06

Question: With `Cc1cc(NC(=O)CSc2nnc[nH]2)no1` as the compound, how does the relative growth read?
Answer: inactive: 0.989

Question: `O=C1CN(S(=O)(=O)Cc2ccccc2)C[C@H]2[C@@H](c3ccc(C#Cc4cccc(F)c4)cc3)[C@@H](CO)N12` was tested. Which relative growth did it give?
Answer: inactive: 1.02

Question: Which relative growth does the source give for `C[C@H](CO)N1C[C@H](C)[C@@H](CN(C)S(=O)(=O)c2ccc(Cl)cc2)OCCCC[C@H](C)Oc2ccc(NC(=O)Cc3ccccc3)cc2C1=O` here?
Answer: inactive: 0.995

Question: For `C[C@@H]1CCCCO[C@@H](CN(C)Cc2ccncc2)[C@H](C)CN([C@@H](C)CO)C(=O)c2cc(NC(=O)Nc3ccccc3)ccc2O1`, which relative growth is on record?
Answer: inactive: 0.982

Question: Which relative growth does the source give for `Nc1ccc(S(=O)(=O)Nc2ccnn2-c2ccccc2)cc1` here?
Answer: inactive: 0.856

Question: Which relative growth does the source give for `C[C@@H]1CN([C@@H](C)CO)C(=O)Cc2cc(NS(=O)(=O)c3cccs3)ccc2O[C@H]1CN(C)Cc1ccncc1` here?
Answer: inactive: 0.968

Question: With `C[C@H](CO)N1C[C@H](C)[C@@H](CN(C)Cc2ccc(Cl)c(Cl)c2)Oc2ccc(NC(=O)Nc3ccc(C(F)(F)F)cc3)cc2C1=O` as the compound, how does the relative growth read?
Answer: inactive: 1

Question: With `C[C@@H]1CN([C@@H](C)CO)S(=O)(=O)c2ccc(Br)cc2O[C@H]1CN(C)C(=O)c1cnccn1` as the compound, how does the relative growth read?
Answer: inactive: 0.983

Question: For `CC(C)NC(=O)Nc1cccc2c1O[C@H](CN(C)Cc1ccc(-c3ccccc3)cc1)[C@@H](C)CN([C@@H](C)CO)C2=O`, which relative growth is on record?
Answer: inactive: 0.997

Question: How did the relative growth turn out when `Cc1noc(C)c1S(=O)(=O)Nc1ccc2c(c1)CC(=O)N([C@H](C)CO)C[C@@H](C)[C@@H](CN(C)Cc1ccccc1)O2` was run?
Answer: inactive: 1.01

Question: With `O=C(C[C@H]1CC[C@@H]2[C@H](COC[C@@H](O)CN2C(=O)c2cnccn2)O1)N1CCN(c2ccccc2)CC1` as the compound, how does the relative growth read?
Answer: inactive: 1.01

Question: Which relative growth does the source give for `COc1ccc(S(=O)(=O)N(C)C[C@@H]2Oc3ccc(NS(=O)(=O)c4c(C)noc4C)cc3C(=O)N([C@H](C)CO)C[C@@H]2C)cc1` here?
Answer: inactive: 0.996

Question: For `C[C@@H]1CCCCO[C@@H](CN(C)Cc2ccccc2)[C@@H](C)CN([C@@H](C)CO)C(=O)c2cc(NC(=O)NC3CCCCC3)ccc2O1`, which relative growth is on record?
Answer: inactive: 1

Question: For `C[N+](C)(C)CCCCCCNC(=O)[C@@H]1C[C@@H]2C(=O)N[C@@H](CCCC[N+](C)(C)C)C(=O)N2[C@@H]1c1ccc(O)cc1`, which relative growth is on record?
Answer: inactive: 1.03

Question: For `COc1ccc(NC(=O)N(C)C[C@H]2OCCCC[C@@H](C)Oc3ccc(NS(=O)(=O)c4ccccc4)cc3C(=O)N([C@@H](C)CO)C[C@H]2C)cc1`, which relative growth is on record?
Answer: inactive: 1.04

Question: For `C/C(=C\C(=O)OCCCCCCCCC(=O)O)C[C@@H]1OC[C@H](C[C@@H]2O[C@H]2[C@@H](C)[C@H](C)O)[C@@H](O)[C@H]1O`, which relative growth is on record?
Answer: active: 0.166

Question: With `C[C@H]1CN([C@@H](C)CO)C(=O)Cc2cc(NS(C)(=O)=O)ccc2O[C@H]1CN(C)S(C)(=O)=O` as the compound, how does the relative growth read?
Answer: inactive: 0.999

Question: Which relative growth does the source give for `C[C@@H]1CN([C@H](C)CO)C(=O)c2cc(NC(=O)Nc3ccc(C(F)(F)F)cc3)ccc2O[C@H]1CN(C)S(=O)(=O)c1ccc(F)cc1` here?
Answer: inactive: 1.03

Question: How did the relative growth turn out when `Cc1ccc(S(=O)(=O)Nc2ccc3c(c2)C(=O)N([C@H](C)CO)C[C@H](C)[C@H](CN(C)C(=O)Nc2ccc(F)cc2)OCCCC[C@H](C)O3)cc1` was run?
Answer: inactive: 1.04

Question: `C[C@H](CO)N1C[C@H](C)[C@H](CN(C)C(=O)Nc2ccc(C(F)(F)F)cc2)Oc2c(NC(=O)C3CCCCC3)cccc2C1=O` was tested. Which relative growth did it give?
Answer: inactive: 0.972

Question: With `C[C@@H]1CN([C@H](C)CO)C(=O)c2cc(Br)cnc2O[C@H]1CN(C)C(=O)Nc1ccccc1F` as the compound, how does the relative growth read?
Answer: inactive: 0.965

Question: `C[C@H](CO)N1C[C@H](C)[C@@H](CN(C)CC2CCCCC2)OCCCC[C@H](C)Oc2ccc(NC(=O)Nc3cccc4ccccc34)cc2C1=O` was tested. Which relative growth did it give?
Answer: inactive: 0.975

Question: How did the relative growth turn out when `C[C@@H]1CN([C@@H](C)CO)C(=O)Cc2cc(NC(=O)CCC(F)(F)F)ccc2O[C@H]1CN(C)S(C)(=O)=O` was run?
Answer: inactive: 1.02

Question: With `COc1ccc(NC(=O)N(C)C[C@@H]2Oc3ccc(NS(C)(=O)=O)cc3C(=O)N([C@H](C)CO)C[C@@H]2C)cc1` as the compound, how does the relative growth read?
Answer: inactive: 1.02

Question: How did the relative growth turn out when `CC[C@@H]1OC(=O)[C@@H](C)[C@H](O[C@H]2C[C@@](C)(OC)[C@@H](O)[C@H](C)O2)[C@@H](C)[C@H](O)[C@@](C)(O[C@@H]2O[C@H](C)C[C@H](N(C)C)[C@H]2O)C[C@H](C)C(=O)[C@@H](C)[C@H](O)[C@@]1(C)O` was run?
Answer: inactive: 0.427

Question: How did the relative growth turn out when `C[C@@H]1CN([C@H](C)CO)C(=O)c2cc(NC(=O)C3CC3)ccc2O[C@H]1CN(C)S(=O)(=O)c1cn(C)cn1` was run?
Answer: inactive: 1.05

Question: How did the relative growth turn out when `C[C@H]1CCCCO[C@H](CN(C)Cc2ccc(C(F)(F)F)cc2)[C@@H](C)CN([C@@H](C)CO)C(=O)c2cc(NC(=O)Nc3ccccc3)ccc2O1` was run?
Answer: inactive: 0.988

Question: How did the relative growth turn out when `COc1ccc(S(=O)(=O)Nc2ccc3c(c2)CC(=O)N([C@@H](C)CO)C[C@@H](C)[C@@H](CN(C)S(C)(=O)=O)O3)cc1` was run?
Answer: inactive: 0.988

Question: How did the relative growth turn out when `COc1ccc(NC(=O)N(C)C[C@@H]2OCCCC[C@@H](C)Oc3ccc(NC(=O)c4ccncc4)cc3C(=O)N([C@@H](C)CO)C[C@H]2C)cc1` was run?
Answer: inactive: 1.01

Question: For `C=CC[C@@H](CC(=O)N(CCO)Cc1ccccc1)C(=O)NC[C@H](OC(=O)[C@H](CC=C)NC(=O)OCC1c2ccccc2-c2ccccc21)c1ccccc1`, which relative growth is on record?
Answer: inactive: 0.935

Question: `NS(=O)(=O)c1ncn(Cc2ccccc2)n1` was tested. Which relative growth did it give?
Answer: inactive: 0.939

Question: With `CC(C)NC(=O)Nc1ccc2c(c1)C(=O)N([C@H](C)CO)C[C@@H](C)[C@H](CN(C)Cc1ccc(C(F)(F)F)cc1)OCCCC[C@H](C)O2` as the compound, how does the relative growth read?
Answer: inactive: 0.99

Question: With `COCC#Cc1cnc2c(c1)C(=O)N([C@H](C)CO)C[C@H](C)[C@@H](CN(C)C(C)=O)O2` as the compound, how does the relative growth read?
Answer: inactive: 0.986

Question: For `O=C(NO)c1cccc(C(=O)N/N=C/[C@@H](O)[C@@H](O)[C@H](O)[C@H](O)CO)c1`, which relative growth is on record?
Answer: inactive: 0.98

Question: How did the relative growth turn out when `O=C(CCCCCC(=O)Nc1ccccc1O)N/N=C/C[P+](c1ccccc1)(c1ccccc1)c1ccccc1` was run?
Answer: inactive: 1.01

Question: How did the relative growth turn out when `O=C(NCC(O)CO)c1c(I)c(C(=O)NCC(O)CO)c(I)c(N(CCO)C(=O)CO)c1I` (centres undefined) was run?
Answer: inactive: 1.1

Question: Which relative growth does the source give for `Cn1cnc(CCNC(=O)C[C@H]2CC[C@@H]3[C@H](COC[C@@H](O)CN3C(=O)C3CC3)O2)c1` here?
Answer: inactive: 0.96

Question: With `C[C@@H]1CN([C@@H](C)CO)C(=O)c2cc(NC(=O)Nc3ccc4c(c3)OCO4)ccc2O[C@H]1CN(C)C(=O)Nc1cccc2ccccc12` as the compound, how does the relative growth read?
Answer: inactive: 1.01

Question: Which relative growth does the source give for `C[C@H]1CN([C@@H](C)CO)C(=O)c2cc(NS(C)(=O)=O)ccc2O[C@H]1CN(C)S(=O)(=O)c1ccccc1` here?
Answer: inactive: 0.994

Question: Which relative growth does the source give for `Cc1noc(C)c1NC(=O)Nc1cccc2c1O[C@@H](CN(C)Cc1ccc(-c3ccccc3)cc1)[C@H](C)CN([C@@H](C)CO)C2=O` here?
Answer: inactive: 1.01

Question: For `COc1ccc(S(=O)(=O)N(C)C[C@@H]2Oc3c(NC(=O)c4cnccn4)cccc3C(=O)N([C@@H](C)CO)C[C@H]2C)cc1`, which relative growth is on record?
Answer: inactive: 1.01

Question: With `C[C@H](CO)N1C[C@H](C)[C@@H](CN(C)S(=O)(=O)c2cn(C)cn2)Oc2ncc(Br)cc2C1=O` as the compound, how does the relative growth read?
Answer: inactive: 0.937

Question: For `O=C(C[C@@H]1CC[C@@H]2[C@H](COC[C@@H](O)CN2S(=O)(=O)c2ccc(F)cc2)O1)NCCN1CCCCC1`, which relative growth is on record?
Answer: inactive: 1.02

Question: Which relative growth does the source give for `CCc1cn([C@H]2C[C@@H](O)[C@@H](CO)O2)c(=O)[nH]c1=O` here?
Answer: inactive: 0.827

Question: How did the relative growth turn out when `COc1ccc(S(=O)(=O)N(C)C[C@H]2Oc3ccc(NS(=O)(=O)c4ccc(C)cc4)cc3C(=O)N([C@@H](C)CO)C[C@H]2C)cc1` was run?
Answer: inactive: 1.03

Question: `O=C(C[C@@H]1C[C@H]2c3cc(NC(=O)NC4CCCC4)ccc3O[C@H]2[C@H](CO)O1)NCCN1CCCCC1` was tested. Which relative growth did it give?
Answer: inactive: 1

Question: `C[C@H](CO)N1C[C@H](C)[C@H](CN(C)Cc2ccc(Oc3ccccc3)cc2)Oc2ccc(NC(=O)Nc3ccc(F)cc3)cc2C1=O` was tested. Which relative growth did it give?
Answer: inactive: 0.892
